# Measured values published in article PMC9911399, “Two distinct binding modes provide the RNA-binding protein RbFox with extraordinary sequence specificity”.
# Substitutions are numbered along the chain they refer to; changes in the protein carry UniProt numbers. The list shows a part of the results.
# T1: RBFOX1 RRM (Homo sapiens, UniProt Q9NWB1 109-208)
# T1 sequence: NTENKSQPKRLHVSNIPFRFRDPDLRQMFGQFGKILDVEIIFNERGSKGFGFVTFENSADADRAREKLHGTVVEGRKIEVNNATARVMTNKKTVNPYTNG
# B1: AUCGCUC (DNA:RNA)
# RNA: GGGAGACCGGAAUUCAGAUUGUCCAUCGCUCUUAAAUCCCGUCGUAGCCACCA
# DNA 1: CAATCTGAATTCCGGTCTCCC
# DNA 2: TGGTGGCTACGACGGGATT
# B2: GCGCUAG (DNA:RNA)
# RNA: GGGAGACCGGAAUUCAGAUUGUCCGCGCUAGUUAAAUCCCGUCGUAGCCACCA
# DNA 1: CAATCTGAATTCCGGTCTCCC
# DNA 2: TGGTGGCTACGACGGGATT
# B3: UACAAGU (DNA:RNA)
# RNA: B1 RNA with A25U, U26A, G28A, C29A, U30G, C31U
# DNA 1: CAATCTGAATTCCGGTCTCCC
# DNA 2: TGGTGGCTACGACGGGATT
# B4: GAGAUAG (DNA:RNA)
# RNA: B2 RNA with C26A, C28A
# DNA 1: CAATCTGAATTCCGGTCTCCC
# DNA 2: TGGTGGCTACGACGGGATT
# B5: AGAACCG (DNA:RNA)
# RNA: B1 RNA with U26G, C27A, G28A, U30C, C31G
# DNA 1: CAATCTGAATTCCGGTCTCCC
# DNA 2: TGGTGGCTACGACGGGATT
# B6: GUCUGUU (DNA:RNA)
# RNA: B1 RNA with A25G, G28U, C29G, C31U
# DNA 1: CAATCTGAATTCCGGTCTCCC
# DNA 2: TGGTGGCTACGACGGGATT
# B7: CCCAAAG (DNA:RNA)
# RNA: B2 RNA with G25C, G27C, C28A, U29A
# DNA 1: CAATCTGAATTCCGGTCTCCC
# DNA 2: TGGTGGCTACGACGGGATT
# B8: UUUUACA (DNA:RNA)
# RNA: B1 RNA with A25U, C27U, G28U, C29A, U30C, C31A
# DNA 1: CAATCTGAATTCCGGTCTCCC
# DNA 2: TGGTGGCTACGACGGGATT
# B9: CCGGCUG (DNA:RNA)
# RNA: B1 RNA with A25C, U26C, C27G, C31G
# DNA 1: CAATCTGAATTCCGGTCTCCC
# DNA 2: TGGTGGCTACGACGGGATT
# B10: GAGGGGG (DNA:RNA)
# RNA: B2 RNA with C26A, C28G, U29G, A30G
# DNA 1: CAATCTGAATTCCGGTCTCCC
# DNA 2: TGGTGGCTACGACGGGATT
# B11: CAGCAGA (DNA:RNA)
# RNA: B2 RNA with G25C, C26A, U29A, A30G, G31A
# DNA 1: CAATCTGAATTCCGGTCTCCC
# DNA 2: TGGTGGCTACGACGGGATT
# B12: CUGAGAU (DNA:RNA)
# RNA: B2 RNA with G25C, C26U, C28A, U29G, G31U
# DNA 1: CAATCTGAATTCCGGTCTCCC
# DNA 2: TGGTGGCTACGACGGGATT
# B13: AGGAUUU (DNA:RNA)
# RNA: B1 RNA with U26G, C27G, G28A, C29U, C31U
# DNA 1: CAATCTGAATTCCGGTCTCCC
# DNA 2: TGGTGGCTACGACGGGATT
# B14: CUUCUCC (DNA:RNA)
# RNA: B1 RNA with A25C, C27U, G28C, C29U, U30C
# DNA 1: CAATCTGAATTCCGGTCTCCC
# DNA 2: TGGTGGCTACGACGGGATT
# B15: UACGAAU (DNA:RNA)
# RNA: B1 RNA with A25U, U26A, C29A, U30A, C31U
# DNA 1: CAATCTGAATTCCGGTCTCCC
# DNA 2: TGGTGGCTACGACGGGATT
# B16: UCGAUUG (DNA:RNA)
# RNA: B2 RNA with G25U, C28A, A30U
# DNA 1: CAATCTGAATTCCGGTCTCCC
# DNA 2: TGGTGGCTACGACGGGATT
# B17: ACCGAAC (DNA:RNA)
# RNA: B1 RNA with U26C, C29A, U30A
# DNA 1: CAATCTGAATTCCGGTCTCCC
# DNA 2: TGGTGGCTACGACGGGATT
# B18: UGGUCAG (DNA:RNA)
# RNA: B2 RNA with G25U, C26G, C28U, U29C
# DNA 1: CAATCTGAATTCCGGTCTCCC
# DNA 2: TGGTGGCTACGACGGGATT
# B19: CCGAAUU (DNA:RNA)
# RNA: B2 RNA with G25C, C28A, U29A, A30U, G31U
# DNA 1: CAATCTGAATTCCGGTCTCCC
# DNA 2: TGGTGGCTACGACGGGATT
# B20: UCACCGC (DNA:RNA)
# RNA: B1 RNA with A25U, U26C, C27A, G28C, U30G
# DNA 1: CAATCTGAATTCCGGTCTCCC
# DNA 2: TGGTGGCTACGACGGGATT
# B21: UAUGUGC (DNA:RNA)
# RNA: B1 RNA with A25U, U26A, C27U, C29U, U30G
# DNA 1: CAATCTGAATTCCGGTCTCCC
# DNA 2: TGGTGGCTACGACGGGATT
# B22: UGCCGAC (DNA:RNA)
# RNA: B1 RNA with A25U, U26G, G28C, C29G, U30A
# DNA 1: CAATCTGAATTCCGGTCTCCC
# DNA 2: TGGTGGCTACGACGGGATT
# B23: AGUUUGC (DNA:RNA)
# RNA: B1 RNA with U26G, C27U, G28U, C29U, U30G
# DNA 1: CAATCTGAATTCCGGTCTCCC
# DNA 2: TGGTGGCTACGACGGGATT
# B24: GCAGCGA (DNA:RNA)
# RNA: B1 RNA with A25G, U26C, C27A, U30G, C31A
# DNA 1: CAATCTGAATTCCGGTCTCCC
# DNA 2: TGGTGGCTACGACGGGATT
# B25: AGAUGGA (DNA:RNA)
# RNA: B1 RNA with U26G, C27A, G28U, C29G, U30G, C31A
# DNA 1: CAATCTGAATTCCGGTCTCCC
# DNA 2: TGGTGGCTACGACGGGATT
# B26: UGGCGAG (DNA:RNA)
# RNA: B2 RNA with G25U, C26G, U29G
# DNA 1: CAATCTGAATTCCGGTCTCCC
# DNA 2: TGGTGGCTACGACGGGATT
# B27: AUGUAGC (DNA:RNA)
# RNA: B1 RNA with C27G, G28U, C29A, U30G
# DNA 1: CAATCTGAATTCCGGTCTCCC
# DNA 2: TGGTGGCTACGACGGGATT
# B28: GGACCUU (DNA:RNA)
# RNA: B1 RNA with A25G, U26G, C27A, G28C, C31U
# DNA 1: CAATCTGAATTCCGGTCTCCC
# DNA 2: TGGTGGCTACGACGGGATT
# B29: GGUCGGC (DNA:RNA)
# RNA: B2 RNA with C26G, G27U, U29G, A30G, G31C
# DNA 1: CAATCTGAATTCCGGTCTCCC
# DNA 2: TGGTGGCTACGACGGGATT
# B30: UAAUCAC (DNA:RNA)
# RNA: B1 RNA with A25U, U26A, C27A, G28U, U30A
# DNA 1: CAATCTGAATTCCGGTCTCCC
# DNA 2: TGGTGGCTACGACGGGATT
# B31: ACGUGAG (DNA:RNA)
# RNA: B2 RNA with G25A, C28U, U29G
# DNA 1: CAATCTGAATTCCGGTCTCCC
# DNA 2: TGGTGGCTACGACGGGATT
# Target: T1, RBFOX1 RRM
# Assay: EMSA; HiTS-Eq, 1 nM pool, 10 min; buffer printed only for the single-RNA assays: 10 mM Tris pH 7.5, 150 mM NaCl, 3.4 mM EDTA, 0.001% NP-40, 30 C
# Conditions: tags: His6 N-terminal (pET28a); label: 5' 32P
# How it was run: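 Purified wild-type or mutant RbFox RRM at increasing concentrations was equilibrated with 1 nM of 5′-radiolabelled RNA carrying 7 randomized nucleotides for 10 min in 50 µL. Unbound RNA was separated by 8% native PAGE and sequenced. Relative association constants came from read-count changes of each RNA species compared with the control reaction, normalised to the cognate motif.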
row,Binder,binding signal
1,B1,0.00655 KA relative to UGCAUGU
2,B2,0.0263 KA relative to UGCAUGU
3,B3,0.00644 KA relative to UGCAUGU
4,B4,0.0128 KA relative to UGCAUGU
5,B5,0.00181 KA relative to UGCAUGU
6,B6,0.0246 KA relative to UGCAUGU
7,B7,0.00837 KA relative to UGCAUGU
8,B8,0.00617 KA relative to UGCAUGU
9,B9,0.0202 KA relative to UGCAUGU
10,B10,0.0168 KA relative to UGCAUGU
11,B11,0.00659 KA relative to UGCAUGU
12,B12,0.0144 KA relative to UGCAUGU
13,B13,0.0177 KA relative to UGCAUGU
14,B14,0.0114 KA relative to UGCAUGU
15,B15,0.0095 KA relative to UGCAUGU
16,B16,0.0206 KA relative to UGCAUGU

row,Binder,binding signal
1,B17,0.00249 KA relative to UGCAUGU
2,B18,0.0151 KA relative to UGCAUGU
3,B19,0.00468 KA relative to UGCAUGU
4,B20,0.0036 KA relative to UGCAUGU
5,B21,0.0265 KA relative to UGCAUGU
6,B22,0.0163 KA relative to UGCAUGU
7,B23,0.0183 KA relative to UGCAUGU
8,B24,0.012 KA relative to UGCAUGU
9,B25,0.00205 KA relative to UGCAUGU
10,B26,0.0215 KA relative to UGCAUGU
11,B27,0.00979 KA relative to UGCAUGU
12,B28,0.015 KA relative to UGCAUGU
13,B29,0.00742 KA relative to UGCAUGU
14,B30,0.00552 KA relative to UGCAUGU
15,B31,0.00861 KA relative to UGCAUGU
